From PubChem BioAssay AID1768 (National Center for Advancing Translational Sciences (NCATS), 2009)
The campaign covered roughly 270,000 compounds. About 620 (0.23%) were called active. The shares of active, inactive and inconclusive entries below differ from those in the screen. The call rests on the fitted dose curve; in most records, active means well fitted inhibition curve with a large enough effect in the polarisation, with a control signal flat (not every such curve was filed as active); inconclusive means small, poorly fitted or top-dose-only effect, or effect the other way, or a change in a side signal; inactive means no such curve, though single readings can be large or run the other way; the % refers to the polarisation. A potency beside an inconclusive call is a rough fit, not a confirmed value. A note “side channel” means that the fit belongs to a control or component signal, not to the main read-out.

Each molecule was assayed against Menin (Homo sapiens) (UniProt O00255) (assay: qHTS Assay for Inhibitors Targeting the Menin-MLL Interaction in MLL Related Leukemias: Competition With Texas Red Labeled MLL-derived Mutant Peptide). Settings: fluorescence polarization; FP activity change, negative = inhibition: at 61.6 µM (top of the series).
Potency means the concentration at half of the fitted maximal effect; tags describe the fitted curve by direction and shape or compound fluorescence and quenching.
Wherever FP activity change, negative = inhibition is given: % of control where 0% means no effect.

Sequence of UniProt O00255 (O00255 whole entry, looked up): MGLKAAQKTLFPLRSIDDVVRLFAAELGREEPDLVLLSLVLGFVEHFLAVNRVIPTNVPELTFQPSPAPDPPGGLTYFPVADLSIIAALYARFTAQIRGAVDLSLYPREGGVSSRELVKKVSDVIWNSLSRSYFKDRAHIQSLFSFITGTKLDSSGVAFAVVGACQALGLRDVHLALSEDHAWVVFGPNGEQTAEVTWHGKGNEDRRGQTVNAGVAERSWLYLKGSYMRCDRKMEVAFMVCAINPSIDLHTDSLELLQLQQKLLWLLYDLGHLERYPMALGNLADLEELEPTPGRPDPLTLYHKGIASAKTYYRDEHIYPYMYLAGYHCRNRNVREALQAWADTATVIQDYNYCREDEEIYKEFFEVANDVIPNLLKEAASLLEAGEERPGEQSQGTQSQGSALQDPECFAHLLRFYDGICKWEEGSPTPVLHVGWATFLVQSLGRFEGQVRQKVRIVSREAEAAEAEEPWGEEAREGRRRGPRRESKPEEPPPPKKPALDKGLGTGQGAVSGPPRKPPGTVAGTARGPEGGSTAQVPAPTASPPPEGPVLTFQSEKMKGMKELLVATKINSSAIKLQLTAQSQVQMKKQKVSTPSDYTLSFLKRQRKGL

Which Potency does the source give for Cc1ccc(CNC(=O)Cc2ccc(-c3ccccc3)cc2)cc1 here?
The Potency was inconclusive: 17.8 µM [inhibitor, partial curve].

With CCOC(=O)c1cccc(NC(=O)CCOc2ccccc2)c1 as the molecule, how does the Potency read?
The Potency was inconclusive: 3.55 µM [inhibitor, single point].

Which Potency does the source give for CCCCNC(=S)NNC(=O)c1cc(-c2cccnc2)nc2ccccc12 here?
Its Potency is inconclusive: 31.6 µM [quencher, side channel, single point].

Which Potency does the source give for COc1cc(NC(=O)Cn2nc(-c3ccc(F)cc3)ccc2=O)ccc1-n1cnnn1 here?
Its Potency is inconclusive: 39.8 µM [fluorescent, side channel, single point].

Which Potency does the source give for Cc1ccc(NC(=O)c2c(NC(=O)CCC(=O)O)sc3c2CCCCC3)cc1 here?
Its Potency is inconclusive: 25.1 µM [quencher, side channel, partial curve].

COC(=O)c1sc(NC(=S)NC(=O)c2cccc(Br)c2)nc1C was tested. Which Potency did it give?
Its Potency is inconclusive: 39.8 µM [inhibitor, single point].

Which Potency does the source give for O=C(Nc1ccc(OC(F)F)c(Cl)c1)C(c1ccccc1)c1ccccc1 here?
The Potency was inconclusive: 10 µM [quencher, side channel, partial curve].

For COc1cc(/C=C2/C(=O)NN(c3ccccc3)C2=O)cc(Br)c1O, which Potency is on record?
Its Potency is inconclusive: 22.4 µM [quencher, side channel, partial curve].

Cc1cccc(NC(=O)c2nc[nH]c2C(=O)Nc2cccc(C)c2)c1 was tested. Which Potency did it give?
The Potency was inconclusive: 11.2 µM [quencher, side channel, partial curve].

Which Potency does the source give for Cc1ccc(NC2=CC(=O)CC(C)(C)C2)cc1F here?
The Potency was inconclusive: 35.5 µM [inhibitor, partial curve, poor fit].

How did the Potency turn out when C/C(=N\OCC(=O)Nc1nc2ccccc2s1)c1ccccc1 was run?
Its Potency is inconclusive: 39.8 µM [quencher, side channel, single point].

COc1ccc(S(=O)(=O)N2CCC(c3cc(-c4cccc5ccccc45)n[nH]3)CC2)cc1 was tested. Which Potency did it give?
Its Potency is inconclusive: 39.8 µM [inhibitor, partial curve].

With O=C(NCC(=O)N1CCN(c2ccccc2)CC1)c1ccc(Cl)cc1 as the molecule, how does the Potency read?
The Potency was inconclusive: 28.2 µM [inhibitor, single point].

How did the Potency turn out when O=C(/C=C/c1ccc(O)cc1)c1ccc(NC2=C(N3CCCCC3)C(=O)c3ccccc3C2=O)cc1 was run?
Its Potency is inconclusive: 31.6 µM [quencher, partial curve].

How did the “FP activity change, negative = inhibition” value turn out when CCCCc1nc2ccccc2c(NC(=O)CN2CCCC2)c1CCC was run?
The value was inactive: 1.6%.

O=C(O)Cn1c(O)c(C2=c3ccccc3=NC2=O)sc1=O was tested. Which Potency did it give?
Its Potency is inconclusive: 22.4 µM [quencher, side channel, partial curve].

How did the Potency turn out when COc1ccc(C(O)(CCC(C)C)C(CN2CCOCC2)c2ccccc2)cc1 (stereo not given) was run?
The Potency was inconclusive: 14.1 µM [fluorescent, side channel, partial curve].

With CN(c1ccc(C(=O)N2CCN(Cc3ccccc3)CC2)cc1)S(=O)(=O)c1ccc(Cl)cc1 as the molecule, how does the Potency read?
Its Potency is inconclusive: 7.94 µM [fluorescent, side channel, partial curve].

With CC(=O)Nc1ccc(Nc2ncnc3c2cnn3-c2cccc(C)c2)cc1 as the molecule, how does the Potency read?
Its Potency is inconclusive: 28.2 µM [quencher, side channel, partial curve].

CCOC(=O)C1(CCOc2ccccc2)CCN(Cc2cnc(C)s2)CC1 was tested. Which Potency did it give?
Its Potency is inconclusive: 3.16 µM [fluorescent, side channel, partial curve].

Cc1ccc(NS(=O)(=O)c2ccc(CCC(=O)N3CCCC3)cc2)cc1 was tested. Which Potency did it give?
The Potency was inconclusive: 6.31 µM [inhibitor, single point].

With N#CCN1C(=S)N=C(Nc2cccc(Cl)c2)C12CCCCC2 as the molecule, how does the Potency read?
Its Potency is inconclusive: 20 µM [inhibitor, single point].

For COc1ccc(-c2cc(C(=O)NN)[nH]n2)cc1OC, which Potency is on record?
Its Potency is inconclusive: 3.98 µM [quencher, side channel, single point].

How did the Potency turn out when COc1cc(CNc2ccc(O)cc2)cc(Br)c1OCc1ccccc1 was run?
The Potency was inconclusive: 12.6 µM [quencher, side channel, partial curve].

Which Potency does the source give for COc1cccc2sc(N(CCCN(C)C)C(=O)c3ccc(S(=O)(=O)N4CCc5ccccc5C4)cc3)nc12 here?
The Potency was inconclusive: 3.16 µM [fluorescent, side channel, full curve].

Cc1ccc(C)c(NC(=O)c2ccccc2NS(=O)(=O)c2cc([N+](=O)[O-])ccc2C)c1 was tested. Which Potency did it give?
The Potency was inconclusive: 10 µM [quencher, side channel, partial curve].

Which Potency does the source give for COc1cccc(C2CC(c3ccc(C)cc3)=NN2C(=O)c2ccccc2F)c1OC (stereo not given) here?
The Potency was inconclusive: 1.58 µM [inhibitor, full curve, poor fit].

With Cn1c(-c2c(N)n(CCCc3ccccc3)c3nc4ccccc4nc23)nc2ccccc21 as the molecule, how does the Potency read?
The Potency was inconclusive: 25.1 µM [quencher, side channel, partial curve].

Which Potency does the source give for Cc1cccc(S(=O)(=O)Nc2cccc3c2C(=O)c2ccccc2-3)c1 here?
Its Potency is inconclusive: 8.91 µM [quencher, side channel, partial curve].

For CC1(C)C2CCC(C2)C1(C)NC(=O)CN1CCN(Cc2ccccc2)CC1 (stereo not given), which Potency is on record?
The Potency was inconclusive: 15.8 µM [inhibitor, partial curve].

With O=C(Nc1cccc(C(F)(F)F)c1)c1cccnc1 as the molecule, how does the Potency read?
Its Potency is inconclusive: 3.55 µM [quencher, side channel, full curve].

Which Potency does the source give for CCn1c(C)cc(/C=C2\SC(=O)N(CC(=O)Nc3ccc(C)c(C)c3)C2=O)c1C here?
The Potency was inconclusive: 39.8 µM [inhibitor, single point].

Which “FP activity change, negative = inhibition” value does the source give for CC[N+](C)(C)CCN(Cc1ccc(Cl)cc1)c1ccccn1 here?
Its value is inactive: 0.607%.

For COc1cc(/C=N/N2C(=O)c3ccccc3NC2(C)c2cccc([N+](=O)[O-])c2)cc(Br)c1O (stereo not given), which Potency is on record?
Its Potency is inconclusive: 15.8 µM [quencher, side channel, partial curve].

With COc1cc(OC)cc(C(=O)N[C@H](C(=O)NCCc2ccc(S(N)(=O)=O)cc2)C(C)C)c1 as the molecule, how does the Potency read?
The Potency was inconclusive: 1.78 µM [inhibitor, partial curve, poor fit].

O=c1c(O)c(-c2ccccc2)oc2ccccc12 was tested. Which Potency did it give?
The Potency was inconclusive: 39.8 µM [inhibitor, single point].

CCCCCn1c(N)c(-c2nc3ccccc3o2)c2c([N+](=O)[O-])nn(CC)c(=O)c21 was tested. Which Potency did it give?
The Potency was inconclusive: 28.2 µM [quencher, side channel, single point].

With CCC(C)NCCOCCOc1ccccc1-c1ccccc1 (stereo not given) as the molecule, how does the Potency read?
Its Potency is inconclusive: 3.16 µM [inhibitor, partial curve].

With C#CCOCCOCCOCCNc1nc(N2CCN(C(=O)[C@H]([C@@H](C)CC)n3cc(CCCN=C(N)N)nn3)CC2)nc(N2CCN(C(=O)[C@H](C)n3cc(CCCN=C(N)N)nn3)CC2)n1 as the molecule, how does the Potency read?
Its Potency is inconclusive: 28.2 µM [inhibitor, single point].

For COC(=O)c1cc(NC(=O)Nc2cc(OC)ccc2OC)cc(C(=O)OC)c1, which Potency is on record?
The Potency was inconclusive: 10 µM [quencher, side channel, partial curve].

For CC(=O)c1cc(CN2CCC(N3CCC(C(=O)N4CCCC4)CC3)CC2)cs1, which Potency is on record?
Its Potency is inconclusive: 14.1 µM [quencher, side channel, partial curve].

CCOC(=O)C1(CCOc2ccccc2)CCN(Cc2nccn2CC)CC1 was tested. Which Potency did it give?
The Potency was inconclusive: 20 µM [fluorescent, side channel, partial curve].

How did the Potency turn out when CCCc1cnc(N2CCN(C(=O)c3ccc(OC)cc3)CC2)nc1 was run?
The Potency was inconclusive: 15.8 µM [fluorescent, side channel, partial curve, poor fit].

For CC1(c2ccccc2)CC(C)(C)N2C(=O)/C(=C3\SC(=S)NC3=O)c3cccc1c32 (stereo not given), which Potency is on record?
Its Potency is inconclusive: 8.91 µM [quencher, side channel, partial curve].

With CCOC(=O)C1CCN(Cc2ccccc2C(F)(F)F)CC1 as the molecule, how does the “FP activity change, negative = inhibition” value read?
Its value is inactive: 0.929%.

How did the Potency turn out when CSCC[C@H](NC(=O)OC(C)(C)C)c1nnc(SCc2ccccc2)o1 was run?
Its Potency is inconclusive: 14.1 µM [fluorescent, side channel, partial curve].

Which Potency does the source give for O=C1C(=O)N(c2ccccn2)C(c2ccc(Br)cc2)/C1=C(/O)c1ccc(Br)cc1 (stereo not given) here?
Its Potency is inconclusive: 22.4 µM [quencher, side channel, partial curve].

How did the Potency turn out when O=C(Nc1nnc(C2CC2)s1)c1cccc(S(=O)(=O)N2CCc3ccccc32)c1 was run?
The Potency was inconclusive: 39.8 µM [inhibitor, single point].

Which Potency does the source give for Oc1ccc(N=Nc2ccc3ccccc3c2)cc1 here?
The Potency was inconclusive: 15.8 µM [quencher, side channel, partial curve].

Which Potency does the source give for Brc1cc2c(cc1CN1CCc3ccccc3C1)OCO2 here?
Its Potency is inconclusive: 7.94 µM [fluorescent, side channel, partial curve].

For N#CC(C#N)=C1C=C2C=C(N3CCCCC3)CCC2CC1 (stereo not given), which Potency is on record?
The Potency was inconclusive: 22.4 µM [fluorescent, side channel, partial curve].

With Fc1ccc(OCCCCCCN2CCCC2)cc1 as the molecule, how does the Potency read?
The Potency was inconclusive: 39.8 µM [fluorescent, side channel, single point].

With CCOc1cc(NC(=S)NCC2CCCO2)c(OCC)cc1NC(=O)c1ccccc1C (stereo not given) as the molecule, how does the Potency read?
The Potency was inconclusive: 39.8 µM [inhibitor, single point].

For O=C(c1ccc(-c2cc(Cl)ccc2Cl)o1)N1CCOCC1, which Potency is on record?
The Potency was inconclusive: 11.2 µM [fluorescent, side channel, partial curve].

CC(C)C1CCC(C(=O)NC(Cc2ccccc2)C(=O)O)CC1 (stereo not given) was tested. Which “FP activity change, negative = inhibition” value did it give?
The value was inactive: -22.7%.
